Measured values reported in patent publication US20230272055A1, “ANTI-MUTANT CALRETICULIN (CALR) ANTIBODIES AND USES THEREOF” (Incyte Corporation, priority 2021, published 2023).
Changes are numbered by the printed parent chain.

B1: 11 (antibody)
heavy: EVRLVQSGAEVKKPGASVKVSCKVSGYTLTELSMQWVRQAPGKGLEWMGGFDPDDGETMYAEKFQGRLTVTEDTSTDTVYMELRSLTSEDTALYFCATSPGYDFFDYWGQGTLVTVSSASTKGPSVFPLAPSSKSTSGGTAALGCLVKDYFPEPVTVSWNSGALTSGVHTFPAVLQSSGLYSLSSVVTVPSSSLGTQTYICNVNHKPSNTKVDKRV[omitted - human IgG1 Fc]
light: QSALTQPRSVSGSPGQSVTISCTGTSSDVGGYNYVSWYQQHPGKAPKLMIYDVSKRPSGVPDRFSGSNSGNTATLTINRVEAGDEADYYCQVWDSSNDLLIFGGGTKLTVLGQPKAAPSVTLFPPSSEELQANKATLVCLISDFYPGAVTVAWKADSSPVKAGVETTTPSKQSNNKYAASSYLSLTPEQWKSHRSYSCQVTHEGSTVEKTVAPTECS
B2: 12 (antibody)
heavy: B1 heavy with R3Q, D55G
light: SYVLTQPPSVSVAPGQTARVSCGGNNIGSKSVNWYRQKPGQAPVLVIYDDSDRPSGIPERFSGSNSGNTATLTINRVEAGDEADYYCQVWDSSNDLLIFGGGTKLTVLGQPKAAPSVTLFPPSSEELQANKATLVCLISDFYPGAVTVAWKADSSPVKAGVETTTPSKQSNNKYAASSYLSLTPEQWKSHRSYSCQVTHEGSTVEKTVAPTECS
B3: 16 (antibody)
heavy: B1 heavy with R3Q
light: B2 light with Q16K, V20I, S21T, I27T, N33H, R36Q, I47V
B4: 21 (antibody)
heavy: B1 heavy with R3Q, K23E
light: B2 light with N75S
B5: 24 (antibody)
heavy: B1 heavy with R3Q, F64L
light: B2 light with Q16K, V20I, S21T, N33H, R36Q, I47V
B6: 25 (antibody)
heavy: B1 heavy with R3Q
light: B2 light with V3E, S11A, V20I, S21T, S29R, S31A, N33H, R36Q, I47V
B7: 26 (antibody)
heavy: B1 heavy with R3Q
light: B2 light with V20I, S21T, N33H, R36Q, I47V, N75S, N94I, L96H, L105V
B8: 27 (antibody)
heavy: B1 heavy with R3Q
light: B2 light with V20I, S21T, S29I, N33H, R36Q, I47V, S51R
B9: 28 (antibody)
heavy: B1 heavy with R3Q
light: SYELTQPPSVSVAPGQTARITCGGNNIGSKSVHWYQQKPGQAPVLVVYDDSDRPSGIPERFSGSNSGNTATLTISRVEAGDEADYYCQVWDADSDQLIFGGGTKLTVLGQPKAAPSVTLFPPSSEELQANKATLVCLISDFYPGAVTVAWKADSSPVKAGVETTTPSKQSNNKYAASSYLSLTPEQWKSHRSYSCQVTHEGSTVEKTVAPTECS
B10: 29 (antibody)
heavy: B1 heavy with R3Q
light: B9 light with E3V, Q16K, A92S, D93S, Q96L, T103A
B11: 30 (antibody)
heavy: B1 heavy with R3Q
light: B2 light with Q16K, R19T, V20I, S21T, S29T, N33H, R36Q, I47V
B12: 50 (antibody)
heavy: QMQLVQSGAEVKKPGSSVKVSCKASGGTFSSYAISWVRQAPGQGLEWMGGIIPIFGTANYAQKFQGRVTITADESTSTAYMELSSLRSEDTAVYYCASSPLRGSGWYWHYYYGMDVWGQGTTVTVSSASTKGPSVFPLAPSSKSTSGGTAALGCLVKDYFPEPVTVSWNSGALTSGVHTFPAVLQSSGLYSLSSVVTVPSSSLGTQTYICNVNHKPSNTKVDKRV[omitted - human IgG1 Fc]
light: SYVLTQPPSVSVAPGKTARITCGGNNIGTKSVHWYQQKPGQSPVLVIYQDRKRPSGIPERFSGSNSGNTATLTISGTQAMDEADYYCQVWDSSTEVFGGGTKLTVLGQPKAAPSVTLFPPSSEELQANKATLVCLISDFYPGAVTVAWKADSSPVKAGVETTTPSKQSNNKYAASSYLSLTPEQWKSHRSYSCQVTHEGSTVEKTVAPTECS
B13: 2 (antibody)
heavy: B1 heavy with R3Q
light: B9 light with Q16K, N25D, A92S, D93S, S94I, Q96H, L105V

Molecular target: T1, recombinant MBP-mutCALR Type 1 fusion protein (Homo sapiens, UniProt P27797, DEL40-40)
T1 construct: His6 (N); purchased Cepter (cepterbiopartners.com), custom made
Assay: Biacore SPR binding kinetics, Experiment 1
Settings: Biacore 8K, 25° C., 1:1 binding model
Experimental: The amino acid sequence of recombinant MBP-mutCALR Type 1 fusion protein used in Experiments 1 and 2 is:
Experiment 1: Recombinant MBP-mutCALR Type 1 fusion protein was custom made at Cepter (cepterbiopartners.com). Data for the interaction of antibodies with recombinant MBP-mutCALR Type 1 fusion protein were collected at 25° C. on a Biacore 8K instrument (Cytiva, Marlborough, Mass.), and all reagents were obtained from Cytiva unless otherwise specified. The experiments were conducted using Tris-buffered saline (pH 7.2), 0.005% Surfactant P20, 1 mM CaCl2) as running buffer. To prepare the capture surfaces, anti-human IgG (Fc) antibodies (Product #29234600) was amine-coupled onto a CM4 chip (Product #BR100534) under standard conditions using an Amine Coupling Kit (Product #BR100050). Anti-mutCALR antibodies were captured onto the chip surface by injecting over flow cell 2 only at a flow rate of 30 μL/min for 30 seconds. […] The kinetics parameters were obtained by applying 1:1 binding model to fit the data from multiple-cycle injection experiments using Biacore Insight Evaluation software.

| Molecule | ka [M⁻¹ s⁻¹] | kd [s⁻¹] |
| --- | --- | --- |
| B1 | 514000 | 0.00524 |
| B2 | 589000 | 0.0024 |
| B3 | 2.84e+06 | 0.0354 |
| B4 | 2.57e+06 | 0.00664 |
| B5 | 261000 | 0.00199 |
| B6 | 585000 | 0.00389 |
| B7 | 478000 | 0.00471 |
| B8 | 380000 | 0.00366 |
| B9 | 460000 | 0.00897 |
| B10 | 688000 | 0.00561 |
| B11 | 231000 | 0.00295 |
| B12 | 249000 | 0.00104 |
| B13 | 1.63e+06 | 0.0123 |

Tested on: MPL-mutCALR cells (BaF3 cells stably expressing human MPL and human mutCALR)
Assay: Flow cytometry binding to cell surface MPL and mutCALR (GMFI, four parameter fit)
Settings: four parameter curve fitting
Experimental: To assess binding of CALR antibodies to cell surface CALR, parental BaF3 (DSMZ) cells or BaF3 cells stably expressing only human MPL or both human MPL (Uniprot Number: P40238-1) and human mutCALR Type 1 and Type 2 were used. On the day of the assay, cells were washed and resuspended in assay buffer. Approximately 200,000 cells/well were added to 96-well plates and stained with the indicated concentration of antibodies for 30 minutes on ice. Cells were then washed and stained with goat anti-human secondary conjugated to R-phycoerythrin (R-PE) (Jackson Immuno Research Laboratories) for 30 minutes on ice. The cells were then washed and analyzed by flow cytometry. Geometric Mean Fluorescence Intensity (GMFI) of cell binding was graphed and EC50, hill slope, and area under the curve (AUC) were determined after four parameter curve fitting using GraphPad Prism Software (version 7.04).

| Molecule | MPL-mutCALR Hill Slope |
| --- | --- |
| B1 | 0.31 |
| B2 | 0.46 |
| B3 | 0.35 |
| B4 | 0.22 |
| B5 | 0.41 |
| B6 | 0.36 |
| B7 | 0.46 |
| B8 | 0.28 |
| B9 | 0.37 |
| B10 | 0.39 |
| B11 | 0.28 |
| B12 | 1.73 |
| B13 | 0.38 |

Tested on: Ba/F3 cells transfected with MPL and mutCALR Type 1
Assay: Inhibition of cell proliferation, CellTiter-Glo 72 hours, mutCALR Type 1
Assay type: cell-based
Settings: Ba/F3 engineered cells, high-throughput primary screening
Experimental: To test the ability of anti-mutCALR antibodies to inhibit cell proliferation, engineered Ba/F3 cells transfected with MPL and mutCALR Type 1 were plated at 5,000 cells per well in RPMI 1640+2% FBS, antibodies added, incubated for 72 hours, and followed by assessment of cell viability using the CellTiter-Glo Luminescent Cell Viability Assay (Promega, Madison, Wis.) and Top Count (Perkin Elmer, Boston, Mass.) or Pherastar (BMG Labtech, Ortenberg, Germany) for luminescence quantification. Anti-mutCALR antibodies inhibit mutCALR-induced oncogenic cell proliferation in a dose-dependent manner in both the Ba/F3 engineered cells (FIG. 2).
To test the ability of anti-mutCALR antibodies to inhibit oncogenic cell proliferation triggered by the Type 1 and Type 2 CALR mutations, Ba/F3 cells (DSMZ) were engineered to express MPL+mutCALR Type 1 (52 bp deletion, SEQ ID NO:320) or MPL+mutCALR Type 2 (5 bp insertion; SEQ ID NO:321). Cells were plated at 5,000 cells per well in RPMI 1640+2% FBS, antibodies added, incubated for 72 hours, and followed by assessment of cell viability using the CellTiter-Glo Luminescent Cell Viability Assay (Promega, Madison, Wis.) and Top Count (Perkin Elmer, Boston, Mass.) or Pherastar (BMG Labtech, Ortenberg, Germany) for luminescence quantification. Anti-mutant CALR antibodies show potency to inhibit mutCALR-induced oncogenic cell proliferation associated with both Type 1 and Type 2 mutations (FIG. 3).

| Molecule | IC50 inhibition of cell proliferation [ng/mL] |
| --- | --- |
| B1 | 10.4 |
| B2 | 4.3 |
| B3 | 31.5 |
| B4 | ~9.274 |
| B5 | 4.5 |
| B6 | 3.5 |
| B7 | 109.4 |
| B8 | 4 |
| B9 | 6.8 |
| B10 | ~2.898 |
| B11 | 11.3 |
| B12 | 1212 |
| B13 | 71.4 |
